Values joined by “and” are separate entries in the source; they are usually repeats but may differ in a detail not shown here. Equal values may be shown once. Out of some 48,000 compounds screened, about 1,200 (2.5%) were called active. About 2% were inconclusive and are not listed.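 Rule for the calls: active = activation of at least 60% and not above a set upper limit (about 1 call in 100 departs from these limits); inconclusive = activation of 40% to 60%, or above that upper limit; inactive = activation under 40%.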 The list shows a part of the results. Where a structure was tested more than once in an assay, its records may differ in their call.
These compounds were tested against Probable G-protein coupled receptor 32 (Homo sapiens) (UniProt O75388) (assay: qHTS for Agonists of Human Resolvin D1 Receptor DRV1). Conditions: CHO-K1 GPR32 beta-arrestin PathHunter luminescence, 90 min; at 76.9 µM; stronger effect = higher value; zero percent set by DMSO-only wells.
Sequence of UniProt O75388 (O75388 whole entry, looked up, the tested form may be a part): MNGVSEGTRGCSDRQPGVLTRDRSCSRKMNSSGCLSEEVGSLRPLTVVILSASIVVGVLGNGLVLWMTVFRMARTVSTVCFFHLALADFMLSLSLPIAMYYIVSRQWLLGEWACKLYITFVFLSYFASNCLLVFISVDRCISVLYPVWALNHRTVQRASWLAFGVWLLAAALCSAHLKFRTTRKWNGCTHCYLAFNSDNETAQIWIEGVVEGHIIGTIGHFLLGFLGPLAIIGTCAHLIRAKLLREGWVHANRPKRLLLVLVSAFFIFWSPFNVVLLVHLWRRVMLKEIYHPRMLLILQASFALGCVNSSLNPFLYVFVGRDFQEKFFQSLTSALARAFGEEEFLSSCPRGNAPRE
How it was run: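 Agonism was scored by beta-Gal fragment complementation (chemiluminescent read, 1 h detection at ambient temperature) reporting beta-arrestin binding to GPR32 in engineered CHO-K1 cells. Compound treatment lasted 90 min at 37 C, normalized to a DMSO basal control.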
In the case of `CCCCn1c(SCc2ccccc2C)nc2ccsc2c1=O`, the activation is reported as inactive: -29.6%. With `CC1=C(C#N)C(NC(=O)c2ccccc2)(C(F)(F)F)C(=O)N1` (stereo not drawn) the activation was inactive: -8.62%. In the case of `C=C(C)Cn1c(SCC(=O)c2ccc(Br)cc2)nc2sc3c(c2c1=O)CCCC3`, the activation is reported as inactive: -5.76%. For `Cc1ccc(NC(=O)c2ccc3c(O)c(S(=O)(=O)c4ccc(Cl)cc4)c(=O)[nH]c3c2)cc1`, the activation was inactive: -17.9%. With `Cc1ccc(NS(=O)(=O)c2ccc3c(c2)CCN3C(=O)C2CC2)c(C)c1` the activation was inactive: 40.2%. In the case of `CC(C)c1ccccc1NC(=O)C(Cc1c[nH]c2ccccc12)NC(=O)OC(C)(C)C` (stereo not drawn), the activation is reported as inactive: -31.9%. In the case of `Cc1ccc(S(=O)(=O)c2nc(-c3cccs3)oc2SCc2ccc(F)cc2)cc1`, the activation is reported as inactive: -8.36%. For `Cc1ccc2nc(NC(=O)CSc3cc(C)[nH]c(=O)n3)sc2c1`, the activation was inactive: -2.3%. `COc1ccc(CNC(=O)CN2C(=O)COc3ccccc32)c(OC)c1` was tested, and the activation was inactive: -7.68%. `Oc1ccccc1-c1nc2cnccn2c1Nc1ccc(Cl)cc1` was tested, and the activation was inactive: 30.9%. For `CC(=O)c1ccc(NC(=O)C2CCN(S(=O)(=O)c3c(C)noc3/C=C/c3ccc(C)cc3)CC2)cc1`, the activation was inactive: -5.34%. With `COc1ccc(-c2nn3c(-c4ccccc4)nnc3c3ccccc23)cc1` the activation was inactive: 11.1%. With `CCOc1ccc(CNC(=O)CCCn2c(=O)c3cccn3c3cccnc32)cc1` the activation was inactive: -15.9%. `CCOc1ccc(C(=O)N2CCc3cc(OC)c(OC)cc3C2COc2ccc3c(C)cc(=O)oc3c2)cc1OCC` (stereo not drawn) was tested, and the activation was inactive: -5.16%. For `CCCOc1ccc(OC(=O)c2ccc(-c3ccc(CCC)cn3)cc2)cc1`, the activation was inactive: 1.31%. For `O=S(=O)(NCCc1csc(-c2cccc(F)c2)n1)c1cc(F)ccc1F`, the activation was inactive: 24.6%. With `Cc1ccccc1Cn1c(SCc2ccc(C(=O)N3CCCCC3)cc2)nc2ccncc21` the activation was inactive: 1.16%. `COC(=O)c1c(NC(=O)CCCOc2ccc(C)cc2)sc2c1CCCC2` was tested, and the activation was inactive: 7.68%. In the case of `CCn1c(C(=O)Nc2ccccc2C(=O)OC)cc2sc(Cl)cc21`, the activation is reported as inactive: -1.45%. `CCCCCCCCCCOc1cc2c(=O)c(C(=O)OCC)c[nH]c2cc1OCC` was tested, and the activation was inactive: -3.91%. With `COc1ccc(CCNC(=O)c2cc(Nc3ccccc3)nc3ccccc23)cc1OC` the activation was inactive: -26.1%. With `O=C1CCc2cc(S(=O)(=O)NCc3ccccc3)cc3c2N1CC3` the activation was inactive: -1.25%. With `COc1cc(NC(=O)CCNC(=O)Cn2ccc3ccccc3c2=O)cc(OC)c1OC` the activation was inactive: -6.29%. With `Cc1ccc(NC(=O)Cn2c(=O)n(Cc3ccc(F)cc3)c(=O)c3cccnc32)cc1C` the activation was inactive: -4.7%. `O=C(Nc1ccc(S(=O)(=O)N(Cc2ccccc2)c2ccccc2)cc1)c1ccccc1F` was tested, and the activation was inactive: -0.0334%. In the case of `Cc1nc2c(c(C)nn2-c2ccccc2)c(C)c1CCC(=O)Nc1ccccc1`, the activation is reported as inactive: 9.44%. For `COC(=O)c1ccccc1NC(=O)CCCn1c(C)c2cnn(-c3ccccc3)c(=O)c2c1C`, the activation was inactive: -37.1%. In the case of `CCCn1ccc2c(OCC(=O)Nc3ccccc3C(=O)OCC)cccc2c1=O`, the activation is reported as inactive: -20.7%. In the case of `O=C(CCCCn1c(=O)c2ccccc2n(Cc2ccc(F)cc2Cl)c1=O)NCCc1ccc(Cl)cc1`, the activation is reported as inactive: -1.11%. With `COc1ccc(-c2nnc(SCCOc3ccccc3C)o2)cc1OC` the activation was inactive: 10.9%. For `O=S(=O)(c1ccc(Cl)cc1)c1nc(-c2cccs2)oc1SCc1ccccc1F`, the activation was inactive: -18.6%. In the case of `Cc1cn(C)c(CC(=O)Nc2ccc(F)cc2Cl)c1C(=O)O`, the activation is reported as inactive: -0.559%. For `Cc1cc(C)cc(OCCSc2nc3ccc(NC(=O)COc4ccccc4)cc3s2)c1`, the activation was inactive: -4.44%. With `Cc1ccc(OCC(=O)Nc2nonc2-c2ccc(Br)cc2)cc1C` the activation was inactive: -3.68%. `O=C(c1ccc(F)cc1)C1CCN(CCn2c(=O)[nH]c3ccccc3c2=O)CC1` was tested, and the activation was active: 82.3% and inactive: -6.34%. In the case of `COc1ccc(-c2ccc(NS(=O)(=O)c3cc(C)c(C)cc3C)cc2)nn1`, the activation is reported as inactive: -4.83%. With `CCn1nc(C)c2c(-c3ccccc3)cc(=O)n(C(C)C(=O)Nc3cc(C)ccc3C)c21` (stereo not drawn) the activation was inactive: -13.7%. With `O=C(Nc1nc2c(F)cccc2s1)c1ccc(S(=O)(=O)N2CCCc3ccccc32)cc1` the activation was inactive: -6.37%. For `CCOC(=O)C(CC)N1CCN(Cc2ccc(F)cc2)C(=O)C1=O` (stereo not drawn), the activation was inactive: -37.4%. `COc1ccc(N2CCN(C(=O)C(C)n3nc(C)c4sc5ccccc5c4c3=O)CC2)cc1` (stereo not drawn) was tested, and the activation was inactive: -25.7%. `CCc1ccc(NC(=O)Cn2nc(SC)c(S(=O)(=O)c3ccc(OC)cc3)c2N)cc1` was tested, and the activation was inactive: 15.3%. `Clc1ccc(CCNC(c2ccc(Cl)cc2)c2nnc(-c3ccccc3)o2)cc1` (stereo not drawn) was tested, and the activation was inactive: -23.5%. With `CCOC(=O)c1c(NC(=O)C2c3ccccc3Oc3ccccc32)sc2c1CCC(CC)C2` (stereo not drawn) the activation was inactive: -13%. In the case of `CCc1ccc(NC(=O)Cn2c(=O)n(CCCC(=O)NCc3ccc4c(c3)OCO4)c(=O)c3ccccc32)cc1`, the activation is reported as inactive: -7.44%. With `CCOC(=O)c1c(S(=O)(=O)N2CCCC(C(=O)N3CCN(c4cc(C)ccc4C)CC3)C2)c(C)n(C)c1C` (stereo not drawn) the activation was inactive: 14%. For `CCS(=O)(=O)NCC(c1ccco1)N1CCN(c2ccc(F)cc2)CC1` (stereo not drawn), the activation was inactive: 15.6%. `CC(=O)C1=C(c2cccc([N+](=O)[O-])c2)N(C(C)=O)n2c(nnc2-c2ccc(C)cc2)S1` was tested, and the activation was inactive: -11.8%. In the case of `Cc1nc(SCC(=O)Nc2ccc(C)c(Cl)c2)cc(-c2ccccc2)n1`, the activation is reported as inactive: -20.7%. In the case of `CCOc1ccc(C(=O)Oc2c(Sc3ccccc3)c(C)nn2C(C)(C)C)cc1OCC`, the activation is reported as inactive: 2.46%. `CCc1ccc2occ(CC(=O)Nc3ccc(OC)c(Cl)c3)c2c1` was tested, and the activation was inactive: 6.44%. For `COc1ccc(CN(Cc2ccco2)C(=O)COc2ccccc2OC)cc1`, the activation was inactive: -4.72%. For `CC(=O)c1ccc(NC(=O)Nc2sc3nc4n(c(=O)c3c2C)CCC(C)CC4)cc1` (stereo not drawn), the activation was inactive: -2.22%. For `CCc1ccccc1-n1cnc2cc(C(=O)NC3CCCCCC3)ccc21`, the activation was inactive: -18.6%.
Note: 0% is about no effect.
